Assay results from PubChem BioAssay AID720709 (National Center for Advancing Translational Sciences (NCATS), 2013).
The whole screen tested about 360,000 compounds, of which about 520 (0.14%) were called active. The inconclusive results got no clear call from the source; some entries with a clear call stand among them for comparison. Calls come from the whole dose curve; as a rule, active = well fitted inhibition curve with a large enough effect; inconclusive = small, poorly fitted or top-dose-only effect; inactive = no such curve, though single readings can be large or run the other way. Potencies of inconclusive entries are left out as doubtful fits.

Each molecule was assayed against Rap guanine nucleotide exchange factor 3 (Homo sapiens) (UniProt O95398) (assay: qHTS for Antagonist of cAMP-regulated guanine nucleotide exchange factor 3 (EPAC1): primary screen). Conditions: EPAC1 GEF assay, Rap1b-BODIPY-GDP exchange fluorescence; activity change, negative = inhibition: at 115 µM (top of the series).
Sequence of UniProt O95398 (O95398 whole entry, looked up): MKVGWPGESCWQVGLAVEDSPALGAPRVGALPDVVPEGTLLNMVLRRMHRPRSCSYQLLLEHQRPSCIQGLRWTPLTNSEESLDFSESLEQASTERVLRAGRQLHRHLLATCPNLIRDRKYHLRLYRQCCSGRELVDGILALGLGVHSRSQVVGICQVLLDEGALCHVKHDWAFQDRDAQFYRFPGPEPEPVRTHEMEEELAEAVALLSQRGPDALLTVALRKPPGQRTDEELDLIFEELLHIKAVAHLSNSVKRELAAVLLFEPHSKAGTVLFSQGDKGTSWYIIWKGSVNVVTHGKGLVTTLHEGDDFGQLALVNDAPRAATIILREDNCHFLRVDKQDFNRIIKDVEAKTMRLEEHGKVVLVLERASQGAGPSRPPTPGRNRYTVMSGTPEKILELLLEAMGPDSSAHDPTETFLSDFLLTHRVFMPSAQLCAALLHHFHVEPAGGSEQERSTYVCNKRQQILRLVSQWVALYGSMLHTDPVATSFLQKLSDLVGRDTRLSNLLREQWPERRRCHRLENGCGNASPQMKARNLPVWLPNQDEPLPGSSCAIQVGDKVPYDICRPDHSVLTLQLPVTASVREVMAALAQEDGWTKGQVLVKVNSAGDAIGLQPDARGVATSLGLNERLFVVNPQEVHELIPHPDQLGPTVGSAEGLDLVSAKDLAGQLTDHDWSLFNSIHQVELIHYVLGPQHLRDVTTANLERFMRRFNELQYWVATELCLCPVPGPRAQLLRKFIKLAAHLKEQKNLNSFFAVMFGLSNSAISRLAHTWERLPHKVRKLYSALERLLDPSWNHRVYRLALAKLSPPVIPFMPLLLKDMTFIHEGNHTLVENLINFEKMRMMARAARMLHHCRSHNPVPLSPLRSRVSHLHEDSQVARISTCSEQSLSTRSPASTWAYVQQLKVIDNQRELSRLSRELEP
Note: nearly all actives have a fitted effect of over 50% in size.
Potency is the fitted concentration of half-maximal effect; tags give direction and shape of the fitted curve.
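Throughout, for activity change, negative = inhibition: plate controls were vehicle for no effect and positive control for full effect.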

Structure (SMILES)	Potency	activity change, negative = inhibition
C/C(=N\NC(=S)NCc1ccccc1)c1ccc(C(C)(C)C)cc1	inconclusive [inhibitor, partial curve]	
N=c1ccn(Cc2ccc(Cl)c(Cl)c2)cc1	inconclusive [inhibitor, partial curve]	
OC(c1ccc(Cl)cc1)c1ncc(-c2cccc(C(F)(F)F)c2)[nH]1 (configuration not stated)	inconclusive [inhibitor, full curve, poor fit]	
NNC(=O)c1sc(-c2ccccc2)cc1N	inconclusive [inhibitor, partial curve]	
Cc1noc(NS(=O)(=O)c2ccc(NC(=O)c3cc(S(=O)(=O)Nc4ccc(F)cc4)ccc3Cl)cc2)c1C	inconclusive [inhibitor, single point]	
CCC(C)(C)NC(=O)Cc1ccc(Cl)cc1	inconclusive [inhibitor, single point]	
COc1c(OC)c(O)c2c(=O)c(O)c(-c3ccccc3)oc2c1OC	inconclusive [inhibitor, single point]	
Cc1cc(NC(=O)CSc2nc3ccccc3c(=O)n2C(C)c2ccccc2)no1 (configuration not stated)	inconclusive [inhibitor, partial curve]	
O=C(COC(=O)/C=C/c1ccccc1)Nc1cccc(Oc2ccccc2)c1	inconclusive [inhibitor, single point]	
COc1ccc(C2CC(=O)Oc3ccc(C(C)(C)C)cc32)cc1 (configuration not stated)	inconclusive [inhibitor, single point]	
O=C1N=C(N2CCOCC2)S/C1=C/c1ccc(-c2ccccc2Cl)o1		inactive: -1.54%
COc1ccc(-c2csc(C(C)(O)c3cccc(F)c3)n2)cn1 (configuration not stated)		inactive: -10.1%
CC1CCCN(C(=O)CSc2nc3ccccc3o2)C1 (configuration not stated)		inactive: 2.48%
O=C(Nc1cccc(C(F)(F)F)c1)C1CCN(S(=O)(=O)c2ccc(N3CCCC3=O)cc2)CC1	inconclusive [inhibitor, partial curve]	
Cc1cccc2nc(CSc3nc4ccccc4[nH]3)cn12	inconclusive [inhibitor, partial curve, poor fit]	
CCOC(=O)c1sc(=S)n(-c2ccc(C)cc2)c1N		inactive: 8.86%
CC(OC(=O)CCC(=O)N1CCN(S(=O)(=O)c2ccc3ccccc3c2)CC1)C(=O)NC(N)=O (configuration not stated)	inconclusive [inhibitor, full curve]	
CCc1ccc(C(O)c2ncc(-c3cccc(C(F)(F)F)c3)[nH]2)cc1 (configuration not stated)	inconclusive [inhibitor, partial curve, poor fit]	
CCOc1cc(/C=C(\C#N)c2nc3ccccc3[nH]2)ccc1OC(C)C(=O)O (configuration not stated)	inconclusive [inhibitor, full curve, poor fit]	
COc1cccc(NC(=O)CN(C)C(=O)CNC(=O)c2ccc(Oc3ccccc3)cc2)c1		inactive: 1.14%
COc1ccc(-c2nc(-c3ccccc3)c(-c3cc([N+](=O)[O-])ccc3C)[nH]2)cc1OC	inconclusive [inhibitor, partial curve, poor fit]	
CC(=O)OC1CC(c2cc(C(C)(C)C)c(O)c(C(C)(C)C)c2)=NO1 (configuration not stated)	inconclusive [inhibitor, partial curve, poor fit]	
CC(=O)N1CCCC(C)(C(=O)Nc2ccc3oc(C)nc3c2)C1 (configuration not stated)		inactive: -7.04%

Structure (SMILES)	Potency	activity change, negative = inhibition
Cc1ccc(Nc2c([N+](=O)[O-])c(=O)oc3ccccc23)cc1C	inconclusive [inhibitor, single point]	
Cc1ccc2c(cnn2C(=O)CCCC(=O)NCc2cccc(F)c2)c1	inconclusive [inhibitor, partial curve]	
Cc1nnc(SCc2ccccc2CSc2nnc(C)s2)s1	inconclusive [inhibitor, single point]	
CCOC(=O)c1sc(N)c(C(=O)Nc2ccccc2OC)c1C		inactive: -22.3%
CCN(CC)CCCNC(=O)C(C)n1nc(C)c2sc3ccccc3c2c1=O (configuration not stated)	inconclusive [inhibitor, partial curve]	
COc1cc(OC)c(NC(=S)NCc2ccc(F)cc2)cc1Cl		inactive: -20.5%
CCOc1ccc(N=Nc2ccc(O)c3ncccc23)cc1		inactive: 6.83%
NC(=O)C1CCN(CC(O)COCc2ccccc2Cl)CC1 (configuration not stated)	inconclusive [inhibitor, full curve, poor fit]	
CCN(CC)c1ccc2cc(C(=O)NNC(=O)c3ccc(S(=O)(=O)N4CCCCC4)cc3)c(=O)oc2c1	inconclusive [inhibitor, full curve]	
Nc1ccnc(=O)[nH]1		inactive: 12.8%
Cc1ccc2oc(=O)c(/C=C(\O)c3cccs3)nc2c1		inactive: -10.6%
O=C(Nc1ccc(Cl)cc1)N1CCc2[nH]c3ccccc3c2C1	inconclusive [inhibitor, full curve, poor fit]	
CC1CN(CCOc2ccc([N+](=O)[O-])cc2)CC(C)O1 (configuration not stated)		inactive: -8.32%
Nc1[nH]c(C(=O)c2ccccc2)c(-c2ccc(Br)cc2)c1C(=O)NC1CC1		inactive: -28.1%
Cc1ccc(C(=O)O)cc1-n1c(=O)n(Cc2ccccc2)c(=O)c2[nH]cnc21		inactive: 3.49%
COc1ccc(/C=C(\NC(=O)c2ccco2)C(=O)N2CCOCC2)cc1	inconclusive [inhibitor, partial curve, poor fit]	
COc1ccc(C2c3c(ncn(CCCO)c3=N)Oc3ccc4ccccc4c32)cc1OC (configuration not stated)	inconclusive [inhibitor, partial curve, poor fit]	
COCCCNC(=O)/C(C#N)=C/c1c(N2CCN(c3ccc(OC)cc3)CC2)nc2c(C)cccn2c1=O		inactive: -3.35%
CC1(c2nnc(-c3ccc(Cl)cc3)o2)CC(c2c(Cl)cccc2Cl)=NO1 (configuration not stated)	inconclusive [inhibitor, single point]	
N#Cc1cc(Oc2ccc(Cl)cc2)c(N2CCOCC2)cc1C#N	inconclusive [inhibitor, partial curve, poor fit]	
CCOCC(=O)Nc1nnc(COc2ccc(Cl)cc2)s1		inactive: -13.5%
CCCCNC(=O)c1cc(C)nn1-c1ccccc1		inconclusive: -30.4% [inhibitor]
COc1cc(C2C3=C(CCCC3=O)OC3=C2C(=O)CCC3)ccc1OCC(=O)Nc1ccccc1	inconclusive [inhibitor, partial curve, poor fit]	

Structure (SMILES)	Potency	activity change, negative = inhibition
Cc1ccccc1C(=O)Nc1cccc(C(=O)N/N=C/c2ccccn2)c1	inconclusive [inhibitor, single point]	
Cc1csc2c(=O)sc(NC(=O)c3cccs3)nc12	inconclusive [inhibitor, partial curve]	
Cc1c(Cl)cnc(NC(=O)CSc2nnc(C)n2Cc2ccccc2)c1Cl	inconclusive [inhibitor, single point]	
CCCCC#Cc1ccc(C(=O)NNC(=O)Nc2ccccc2)o1		inactive: 8.73%
O=C(OC(c1ccc(NS(=O)(=O)c2ccccc2)cc1)(C(F)(F)F)C(F)(F)F)c1ccccc1	inconclusive [inhibitor, partial curve]	
Cc1ccc(C)c(S(=O)(=O)Nc2ccc3sc(C)nc3c2)c1	inconclusive [inhibitor, full curve, poor fit]	
Cc1cccc(NC(=O)CN2C(=O)N/C(=C/c3ccc(C)s3)C2=O)c1		inconclusive: -9.71% [inhibitor]
COc1ccc(-c2c(C(F)(F)F)nn(C)c2NC(=O)CSCC(=O)O)cc1		inactive: 14.9%
O=C1O[C@@H](c2ccccc2)C[C@@H](O)[C@H](O)CCCCc2ccccc21	inconclusive [inhibitor, single point]	
O=C1NC(Cc2c[nH]c3ccccc23)C(=O)N1Cc1ccc(CN2C(=O)NC(Cc3c[nH]c4ccccc34)C2=O)cc1 (configuration not stated)		inconclusive: -32.9% [inhibitor]
O=C(c1ccc(S(=O)(=O)Nc2ccccc2)cc1)N1CCCCCCC1	inconclusive [inhibitor, single point]	
CC1(C(=O)NS(=O)(=O)c2ccc(Cl)s2)CCN1C(=O)C1(c2ccc(Cl)cc2)CC1 (configuration not stated)	inconclusive [inhibitor, partial curve]	
CC(C)c1ccc(NC(=O)CSc2nc3ccccc3nc2N2CCCC2)cc1		inactive: 1.6%
Cc1ccc(/C(N)=N/OC(=O)CSc2ccccc2)cc1	inconclusive [inhibitor, partial curve, poor fit]	
O=[N+]([O-])c1ccc(-c2n(-c3ccccn3)c3ccccc3[n+]2-c2ccccn2)cc1	inconclusive [inhibitor, partial curve]	
CCC(C)[C@H](NC(=O)N1CC(=O)Nc2ccccc21)C(=O)N1CCC[C@@H]1C(=O)O (some centres not stated)	inconclusive [inhibitor, partial curve]	
CCN(CC)c1ccc(/C=N/NC(=O)c2nnn(-c3nonc3N)c2C(C)C)c(O)c1	inconclusive [inhibitor, partial curve]	
C/C(Cc1ccccc1)=N\NC(=O)c1cccnc1	inconclusive [inhibitor, partial curve]	
Cc1cccc(C(=O)NC(=S)Nc2c(C)n(C)n(-c3ccccc3)c2=O)c1		inconclusive: -17.4% [inhibitor]
O=C1C(Sc2cccc(F)c2)=C[C@@]2(O)CC[C@@H](O)[C@]1(Sc1cccc(F)c1)[C@H]2O		inactive: -1.01%
O=C(C(=O)N1CCOCC1)c1cn(CCOc2ccccc2)c2ccccc12	inconclusive [inhibitor, partial curve]	
